# According to the supplement of paper PMC4723716:
# ± gives the uncertainty stated by the source. In all, about 9,900 compounds were measured (“viability index relative to DMSO control”: median about 1, lowest 2% from about 0.85 on). The list shows a part of the results.
# System: Plasmodium falciparum NF54 stage V gametocytes
# Assay: viability index relative to DMSO control (fraction); higher = less gametocyte killing
# Details: 2.5 µM, library set: Broad Institute DOS, incubation time: 72 h
# In short: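 P. falciparum NF54 stage V gametocytes (serum-free medium, 0.75% gametocytemia, 1.25% hematocrit) were exposed to compound at 2.5 µM for 72 hr at 37°C under low oxygen, then stained with MitoTracker Red CMXRos and saponin for one to two hours. Red particles of 20–70 µm2 in one field per well were counted, and the viability index is that count scaled to the plate mean of solvent-only wells.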
row,SMILES,viability index
1,O=C(NC[C@H]1[C@@H](c2ccccc2)[C@@H](CO)N1C(=O)C1CCC1)NC1CCCC1,0.986 ± 0.038
2,COc1ccccc1-c1ccc2c(c1)[C@H]1[C@H](CCN1S(=O)(=O)c1ccc(C)cc1)[C@@H](CO)N2,0.811 ± 0.098
3,O=S(=O)(NC[C@@H]1[C@@H](c2ccccc2)[C@H](CO)N1CC1CC1)c1ccccc1,1.02 ± 0.049
4,CCN(C[C@@H]1[C@@H](c2ccccc2)[C@H](CO)N1C(C)=O)C(=O)NC1CCCC1,1.02 ± 0.044
5,COc1ccc(CN2C[C@]3(CN(C3)C(=O)Cc3ccccc3)c3c([nH]c4cc(OC)ccc34)[C@@H]2CO)cc1,0.8953 ± 0.0047
6,O=C(NCCN1CCCCC1)[C@@H]1N[C@@H]2c3ccc(-c4cccnc4)c(=O)n3C[C@@H]2[C@H]1CO,1.06 ± 0.075
7,CN(C)CC(=O)N1[C@@H](C#N)[C@H](c2ccccc2-c2ccc(C(=O)N(C)C)cc2)[C@@H]1CO,1.13 ± 0.09
8,COCC(=O)Nc1ccc2c(c1)C(=O)N(C)[C@@H]1CC[C@@H](CC(=O)N3CCc4ccccc4C3)O[C@H]1CO2,1.06 ± 0.056
9,C[C@H](CO)N1C[C@H](C)[C@H](CN(C)S(=O)(=O)c2cccs2)OCc2ccccc2-c2ccccc2C1=O,0.9959 ± 0.0086
10,CO[C@@H](CN(C)S(=O)(=O)c1cccc(Cl)c1)[C@@H](C)CN(C(=O)Nc1ccccc1F)[C@H](C)CO,1.004 ± 0.01
11,CN(C)CC(=O)N[C@@H]1CC[C@@H](CCNC(=O)C2CCC2)O[C@H]1CO,1.14 ± 0.07
12,CCN1[C@@H]2c3ccc(-c4ccc(C(=O)N(C)C)cc4)c(=O)n3C[C@@H]2[C@@H](CO)[C@@H]1C(=O)NCCOC,1.01 ± 0.05
13,COc1cccc(NC(=O)N[C@@H]2CC[C@H](CC(=O)N3CCN(C)CC3)O[C@H]2CO)c1,1.04 ± 0.046
14,COc1ccc(S(=O)(=O)N2C[C@@H](O)COC[C@H]3O[C@H](CC(=O)N[C@H]4CCN(Cc5ccccc5)C4)CC[C@@H]32)cc1,1.12 ± 0.07
15,O=C(C1CCC1)N1CCCCN2[C@H](C1)[C@H](c1ccc(-c3ccncc3)cc1)[C@@H]2CO,1.06 ± 0.083
16,CCc1csc(N2[C@H](C#N)[C@H](c3ccccc3C3=CCCC3)[C@H]2CO)n1,1.05 ± 0.2
17,CCCNC(=O)N1[C@H](CO)[C@H](c2ccccc2)C12CN(C(=O)C1CCCCC1)C2,1.08 ± 0.033
18,CN(C)C(=O)[C@@H]1[C@@H](CO)[C@@H]2Cn3c(ccc(C4=CCCC4)c3=O)[C@H]1N2S(=O)(=O)c1cn(C)cn1,0.984 ± 0.045
19,CC(C)N(C[C@@H]1[C@@H](c2ccccc2)[C@H](CO)N1S(C)(=O)=O)C(=O)CN(C)C,1.04 ± 0.044
20,COc1ccc(-c2ccc([C@@H]3[C@@H](CO)N4C(=O)CN(C(=O)Cc5ccccn5)C[C@@H]34)cc2)cc1,1.08 ± 0.027
